The whole screen tested about 420,000 compounds, of which about 64,000 (15%) were called active. Inconclusive results, whose numbers are uncertain, are shown with a selection of clear calls. Calls follow the shape of the dose curve; as a rule, active = well fitted inhibition curve with a large enough effect; inconclusive = small, poorly fitted or top-dose-only effect; inactive = flat fitted curve, though single readings scatter. No potency is given beside an inconclusive call; the fits are too rough.
Experiment: qHTS for Inhibitors of human tyrosyl-DNA phosphodiesterase 1 (TDP1): qHTS in cells in absence of CPT; also: nearly all actives have a fitted effect of over 55% in size
Conditions: DT40 Tdp1-/- hTDP1 cells, no CPT, ATP luminescence, 48 h; activity change, negative = growth inhibition: at 46.2 µM (top of the series)
Outline: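 Compound effects on proliferation are scored in DT40 Tdp1-/-;hTDP1 cells in the absence of CPT. ATP levels (CellTiter-Glo luminescence) are recorded after a ≥48 hr, 37 °C incubation.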
For `COc1cc(/C=N/NC(=O)c2ccc3nc[nH]c3c2)cc(OC)c1OC(C)=O`, the “activity change, negative = growth inhibition” value was inactive: -14.6%. With `COCCn1c(C)cc(/C=C2/SC(=O)N(C(C)C(=O)OC)C2=O)c1C` (centres undefined) the Potency was active: 25.9 µM. With `COc1cccc2cc(C(C)N(CCCN3CCOCC3)C(=S)Nc3ccccc3C)oc12` (centres undefined) the Potency was inconclusive [inhibitor, partial curve, poor fit]. With `O=C(CN1CCCC1)Nc1ccc(Br)cc1[N+](=O)[O-]` the “activity change, negative = growth inhibition” value was inactive: 10.6%. With `Cc1nn(CC(=O)NCCc2ccc(Cl)cc2)c(=O)c2cc3cc(F)ccc3n12` the “activity change, negative = growth inhibition” value was inactive: -0.897%. With `COc1ccc(CC2S/C(=N/N=C/c3ccccc3O)NC2=O)cc1` (centres undefined) the Potency was active: 0.92 µM. For `O=C(C1CCC1)N1CCN(S(=O)(=O)c2ccc(Br)cc2Cl)CC1`, the Potency was inconclusive [inhibitor, single point]. With `CCCc1cc(N2CCN(c3cc(Cl)ccc3C)CC2)n2cnnc2n1` the Potency was active: 5.17 µM. With `CCCN1C(=O)C(Cc2nc3ccccc3c(=O)n2CC)c2ccccc21` (centres undefined) the Potency was active: 5.17 µM. With `CCN(CC)S(=O)(=O)c1ccc(N2CCCC2)c(NS(=O)(=O)c2ccc(OC)cc2)c1` the Potency was active: 16.4 µM. In the case of `CN(c1ccccc1)S(=O)(=O)c1ccc(NC(=O)c2ccc(-c3ccccc3)cc2)cc1`, the Potency is reported as inconclusive [inhibitor, single point]. With `COc1ccc(C(=O)N2CCCC(Nc3ccc(C(C)C)cc3)C2)c(OC)n1` (centres undefined) the Potency was active: 23.1 µM. In the case of `O=c1c2sc(-c3ccccc3)cc2nc2n1CCC2`, the “activity change, negative = growth inhibition” value is reported as inactive: -22.9%. With `O=C(CCSc1ccc(Br)cc1)c1ccc(O)cc1` the Potency was active: 4.11 µM. With `CN(C(=O)c1cccc(NC(=O)Cc2ccc(NC(=O)C3CCCN(C(=O)C4CCCCC4)C3)cc2)c1)C1CCCC1` (centres undefined) the Potency was inconclusive [inhibitor, single point]. With `Cc1c(Cl)c([N+](=O)[O-])nn1CCCC(=O)Nc1cc(Cl)ccc1Cl` the Potency was inconclusive [inhibitor, partial curve]. For `CCC1=[N+](CC(=O)c2ccc(C)cc2)CCn2c(C)ccc21`, the Potency was active: 2.06 µM. With `CC(C1CC2CCC1C2)n1c(COc2ccccc2F)nnc1SCC(N)=O` (centres undefined) the activity change, negative = growth inhibition was inconclusive: -33.2% [inhibitor]. In the case of `Cc1ccc(NC(=O)CCc2nnc3n(CC(C)C)c(=O)c4ccccc4n23)cc1C`, the Potency is reported as active: 23.1 µM. In the case of `O=C(NC(=S)Nc1ccc(CN2CCOCC2)cc1)c1ccc([N+](=O)[O-])cc1Cl`, the Potency is reported as active: 25.9 µM. In the case of `CC(C)CN1C(=O)c2ccc(C(=O)Nc3nccs3)cc2C1=O`, the “activity change, negative = growth inhibition” value is reported as inactive: -19.4%. In the case of `CCCOc1ccc(N2CC(C(=O)Nc3cccc(Cl)c3Cl)CC2=O)cc1` (centres undefined), the “activity change, negative = growth inhibition” value is reported as inactive: -17.2%. In the case of `CCOC(=O)Cn1cnc2c(cnn2-c2ccccc2)c1=O`, the “activity change, negative = growth inhibition” value is reported as inactive: 2.66%. With `O=C(COc1cccc2c1CCN(Cc1ccccc1)C2=O)N1CCCCC1` the Potency was inconclusive [inhibitor, single point]. With `CC1CN(/C=C/C(=O)C(F)(F)F)CC(C)O1` (centres undefined) the “activity change, negative = growth inhibition” value was inactive: -15.9%. With `COc1cccc(-n2nc(-c3ccnn3-c3ccc(F)cc3)c(=O)n(C)c2=O)c1` the Potency was inconclusive [inhibitor, partial curve]. In the case of `O=C(NCc1ccc(Cl)cc1)c1cccc(NC(=O)c2ccccc2)c1`, the Potency is reported as inconclusive [inhibitor, single point]. For `CC(=O)Nc1ccccc1OCC(=O)c1ccc2c(c1)OCO2`, the Potency was inconclusive [inhibitor, single point]. For `C=CCOC(=O)C1=C(C)OC(N)=C(C#N)C1c1c(C)nn(-c2ccccc2)c1Cl` (centres undefined), the Potency was active: 9.2 µM. With `COc1ccccc1C(=O)Nc1ccccc1N1CCOCC1` the Potency was inconclusive [inhibitor, single point]. With `CN1CCN(c2nc(N3CCN(CCO)CC3)nc3ccccc23)CC1` the Potency was inconclusive [inhibitor, single point]. With `O=C(/C=C/Nc1ccc(Oc2ccccc2)cc1)c1ccco1` the Potency was inconclusive [inhibitor, partial curve]. In the case of `O=C(NCCc1ccccc1)[C@@H]1CC=C[C@@H]2CCN(C3CC3)C(=O)[C@@H]21`, the “activity change, negative = growth inhibition” value is reported as inactive: 4.26%. For `O=C1CC(SCc2nc3ccccc3[nH]2)C(=O)N1c1cccc(F)c1` (centres undefined), the Potency was inconclusive [inhibitor, single point]. In the case of `Cc1ccc(NC(=O)Cc2ccc(Cl)c(Cl)c2)cc1S(=O)(=O)N(C)C`, the Potency is reported as active: 23.1 µM. With `COc1ccccc1OCCNC(=O)c1cccc(S(=O)(=O)N2CC(C)OC(C)C2)c1` (centres undefined) the Potency was inconclusive [inhibitor, single point]. With `CSc1ccc(/C=C/C(=O)OCC(=O)NC2CC2)cc1` the “activity change, negative = growth inhibition” value was inactive: -17.2%. For `Cc1ccc(S(=O)(=O)N2CCCC2)cc1C(=O)NCC(C)(C)N1CCOCC1`, the Potency was inconclusive [inhibitor, full curve, poor fit]. In the case of `CCCCN1C(=O)CC(N2CCOCC2)C1=O` (centres undefined), the “activity change, negative = growth inhibition” value is reported as inactive: -1.99%. For `Cn1c(=O)c2c(nc(NCC3CCCO3)n2Cc2cccc(Br)c2)n(C)c1=O` (centres undefined), the Potency was active: 14.6 µM. With `C=CCn1c(SCC(=O)Nc2ccc3c(c2)CCC3)nnc1-c1cccs1` the Potency was inconclusive [inhibitor, single point]. In the case of `O=C(CN(c1ccc2c(c1)OCCO2)S(=O)(=O)c1ccccc1)Nc1ccc2c(c1)OCO2`, the Potency is reported as inconclusive [inhibitor, single point]. In the case of `CCS(=O)(=O)N1CCC[C@H]2CN3CCc4cc(OC)ccc4[C@@H]3C[C@@H]21`, the Potency is reported as inconclusive [inhibitor, partial curve]. With `O=C(Cn1c(=O)oc2cc(S(=O)(=O)NCc3ccccc3)ccc21)NCc1ccco1` the Potency was inconclusive [inhibitor, single point]. With `CC1CCN(S(=O)(=O)c2ccc3c(c2)CCN3C(=O)C2CCC2)CC1` the Potency was inconclusive [inhibitor, single point]. For `COc1ccc(C2CC(=O)Oc3c(C(C)C)ccc(C)c32)cc1` (centres undefined), the Potency was inconclusive [inhibitor, partial curve]. In the case of `COc1ccc(S(=O)(=O)N2CCCCCC2)cc1N(C)S(=O)(=O)c1ccc(C)cc1`, the Potency is reported as active: 13 µM. With `CC(C)CNC(=O)c1ccccc1N(Cc1ccccc1)S(C)(=O)=O` the “activity change, negative = growth inhibition” value was inactive: 3.3%. For `CCC(CC)C(=O)NCc1ccc(Cl)cc1`, the “activity change, negative = growth inhibition” value was inactive: -20.5%. With `CCOc1ccc(-c2c(C(=O)N/N=C/c3ccc(C)o3)nnn2-c2nonc2N)cc1` the “activity change, negative = growth inhibition” value was inactive: -2.18%. In the case of `FC(F)(F)c1ccccc1Cc1c(-c2ccccc2)nc2ccc(Br)cn12`, the Potency is reported as inconclusive [inhibitor, single point]. With `CCOC(=O)c1[nH]c2ccc(Br)cc2c1NC(=O)CCN1CCC(C(=O)OCC)CC1` the Potency was active: 16.4 µM. With `Cc1ccc(NC2=CC(c3ccccc3F)N(c3ccc(C)cc3)C2=O)cc1` (centres undefined) the Potency was inconclusive [inhibitor, single point]. In the case of `O=C1CC(c2ccccc2)NN1` (centres undefined), the Potency is reported as inconclusive [inhibitor, single point]. In the case of `CC(C)CN1CC(COCc2ccccc2)Oc2ccccc2S1(=O)=O` (centres undefined), the Potency is reported as inconclusive [inhibitor, single point]. With `CCCCN(C)c1nnc(NC(=O)Nc2cccc(C(C)=O)c2)s1` the Potency was inconclusive [inhibitor, partial curve]. For `O=C(NCc1ccc(OC(F)(F)F)cc1)C1CC(c2ccc(C(F)(F)F)cc2)=NO1` (centres undefined), the Potency was inconclusive [inhibitor, single point]. For `CCOC(=O)c1c(NC(C)=O)sc2c(OCCN(CC)CC)c(Br)ccc12`, the Potency was inconclusive [inhibitor, single point]. In the case of `CC1(C(=O)Nc2ccc(Cl)c(Cl)c2)CCN1C(=O)CC(c1ccccc1)c1ccccc1` (centres undefined), the Potency is reported as active: 23.1 µM. In the case of `CCCCCOC(=O)Cc1c(O)c2ccccc2n(C)c1=O`, the Potency is reported as active: 16.4 µM. With `COc1ccc(-n2c(=O)cnc3cnc(Oc4ccccc4)nc32)cc1` the Potency was inconclusive [inhibitor, single point]. In the case of `O=C(CN1C=NS(=O)(=O)c2ccccc21)Nc1ccc(F)cc1`, the “activity change, negative = growth inhibition” value is reported as inactive: -14.9%. In the case of `CC(=O)Nc1cccc(Nc2cc(C)nn2C)c1`, the “activity change, negative = growth inhibition” value is reported as inactive: 12.4%. With `Cc1ccc(S(=O)(=O)N2C3CCCCC3O[C@H]2CC(=O)c2cccs2)cc1` (some centres undefined) the Potency was inconclusive [inhibitor, single point]. For `CCOC(=O)C1=C[C@@H](CC)N(S(=O)(=O)c2ccc(C)cc2)[C@H]1c1cccc(Cl)c1`, the Potency was active: 20.6 µM. With `CCOC(=O)N1CCN(c2nc(-c3cccs3)cc(C(F)(F)F)n2)CC1` the Potency was inconclusive [inhibitor, partial curve]. In the case of `COc1ccc(-c2cc3nc(C)c(CCC(=O)N4CCN(c5cccc(Cl)c5)CC4)c(C)n3n2)c(OC)c1`, the Potency is reported as active: 5.8 µM. For `CC1CCCC(NC(=O)NC(=O)CCl)C1C` (centres undefined), the Potency was active: 3.66 µM. For `Cc1ccc(SC[C@H](c2ccccc2)N2CCN(C)CCC2=O)cc1`, the Potency was inconclusive [inhibitor, single point]. For `CCCC1=Nc2cc(C(=O)N3CCCC3)ccc2Sc2ccc(C)cc21`, the Potency was inconclusive [inhibitor, single point]. For `COc1c(C)cc(C(=O)C2CCCN(C(=O)C3=C(C)OCCO3)C2)cc1C` (centres undefined), the Potency was inconclusive [inhibitor, single point]. With `CCOc1ccccc1NC(=O)C(Cc1ccccc1)NS(=O)(=O)c1ccc2c(c1)oc(=O)n2C` (centres undefined) the “activity change, negative = growth inhibition” value was inactive: 8.48%. In the case of `Cc1ccccc1N1C(=O)CC1(C#N)c1ccc(OCc2ccccc2)cc1` (centres undefined), the Potency is reported as inconclusive [inhibitor, single point]. With `O=[N+]([O-])c1ccc(S(=O)(=O)NCC(c2cccnc2)N2CCc3ccccc3C2)cc1` (centres undefined) the Potency was active: 20.6 µM.

— PubChem BioAssay AID686978 (National Center for Advancing Translational Sciences (NCATS), 2013)
% is scaled to controls: 0 for no effect and ±100 for the full control effect; potency is read from the fitted curve at half-maximal effect; tags tell the direction and shape of the fitted curve.
